Test results as given in the supplement of paper PMC7826260.
This is one part of the list. Each Rep nickase domain was tested in vitro on the same pool of single strands for 1 h at 37 °C with 3 µM enzyme; only the middle of the 90-letter strands is printed. A value is the log2 ratio of uncut reads to the pool without enzyme; the lower, the more was cut; hits are not called. The scaling is to total reads, so uncut sequences can rise above 0 when many others are cut.

What was measured:
Assay in all cases: uncleaved DNA left, log2 of reads against the no-enzyme library (log2 ratio); higher = less cleavage (more negative = more Rep cleavage of the k-mer); sequences stand for … in CTCGTCCG…ACCGGAGA
[1] = system: T1, Rep nickase domain of Muscovy duck circovirus
T1 sequence (protein, residues 1-111, tag omitted): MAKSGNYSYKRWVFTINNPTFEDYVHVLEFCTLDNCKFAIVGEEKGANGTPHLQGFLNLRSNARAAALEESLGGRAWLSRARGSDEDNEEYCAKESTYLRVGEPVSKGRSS
Procedure: (§1)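 A pool of 90-nt single-stranded DNAs with seven random bases just before the constant AC of the nick site (name = the seven bases) was cut by 3 µM recombinant His6-SUMO-tagged Rep nickase domain (300 nM DNA, 50 mM HEPES pH 8.0, 50 mM NaCl, 1 mM MnCl2, 1 h, 37 °C, three replicates). Uncut DNA was amplified and sequenced.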

[2] = system: T2, Rep nickase domain of banana bunchy top virus
T2 sequence (protein, residues 1-94, tag omitted): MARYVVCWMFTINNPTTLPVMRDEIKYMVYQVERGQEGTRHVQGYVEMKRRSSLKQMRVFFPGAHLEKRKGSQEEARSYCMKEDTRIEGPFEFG
Procedure: as §1

[3] = system: T3, Rep nickase domain of cabbage leaf curl virus
T3 sequence (protein, residues 1-116, tag omitted): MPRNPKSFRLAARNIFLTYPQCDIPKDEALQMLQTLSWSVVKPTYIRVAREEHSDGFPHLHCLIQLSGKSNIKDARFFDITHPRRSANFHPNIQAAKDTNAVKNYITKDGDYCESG
Procedure: as §1

[4] = system: T4, Rep nickase domain of chickpea chlorotic dwarf virus
T4 sequence (protein, residues 1-124, tag omitted): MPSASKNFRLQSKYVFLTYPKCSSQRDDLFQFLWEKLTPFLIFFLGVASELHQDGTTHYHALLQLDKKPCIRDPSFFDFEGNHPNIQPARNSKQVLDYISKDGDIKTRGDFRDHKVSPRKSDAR
Procedure: as §1

[5] = system: T5, Rep nickase domain of faba bean necrotic yellows virus
T5 sequence (protein, residues 1-98, tag omitted): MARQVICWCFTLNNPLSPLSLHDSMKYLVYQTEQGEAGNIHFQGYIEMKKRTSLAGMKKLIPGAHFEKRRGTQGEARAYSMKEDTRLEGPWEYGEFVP
Procedure: as §1

[6] = system: T6, Rep nickase domain of maize striate mosaic virus
T6 sequence (protein, residues 1-117, tag omitted): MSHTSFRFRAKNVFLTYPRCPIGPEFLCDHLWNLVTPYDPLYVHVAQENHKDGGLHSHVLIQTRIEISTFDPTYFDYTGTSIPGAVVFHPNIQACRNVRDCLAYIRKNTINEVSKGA
Procedure: as §1

[7] = system: T7, Rep nickase domain of porcine circovirus 2
T7 sequence (protein, residues 2-116, tag omitted): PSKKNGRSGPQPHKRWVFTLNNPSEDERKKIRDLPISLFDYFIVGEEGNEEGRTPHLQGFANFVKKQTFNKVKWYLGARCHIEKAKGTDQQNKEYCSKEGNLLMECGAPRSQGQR
Procedure: as §1

[8] = system: T8, Rep nickase domain of tomato golden mosaic virus
T8 sequence (protein, residues 1-124, tag omitted): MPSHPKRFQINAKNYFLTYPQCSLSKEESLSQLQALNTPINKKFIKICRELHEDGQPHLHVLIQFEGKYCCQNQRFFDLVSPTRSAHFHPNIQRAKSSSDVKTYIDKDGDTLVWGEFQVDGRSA
Procedure: as §1

[9] = system: T9, Rep nickase domain of tomato yellow leaf curl virus
T9 sequence (protein, residues 1-136, tag omitted): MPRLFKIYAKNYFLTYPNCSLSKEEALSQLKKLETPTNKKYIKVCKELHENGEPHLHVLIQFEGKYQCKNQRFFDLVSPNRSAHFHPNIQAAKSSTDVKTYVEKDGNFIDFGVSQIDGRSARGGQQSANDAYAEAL
Procedure: as §1

[10] = system: T10, Rep nickase domain of wheat dwarf virus
T10 sequence (protein, residues 1-137, tag omitted): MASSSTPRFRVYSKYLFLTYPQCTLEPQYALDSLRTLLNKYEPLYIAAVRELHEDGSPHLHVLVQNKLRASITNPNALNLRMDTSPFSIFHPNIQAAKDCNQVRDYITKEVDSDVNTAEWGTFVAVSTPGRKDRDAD
Procedure: as §1

| Sequence | uncleaved DNA left (log2) [1] | uncleaved DNA left (log2) [2] | uncleaved DNA left (log2) [3] | uncleaved DNA left (log2) [4] | uncleaved DNA left (log2) [5] | uncleaved DNA left (log2) [6] | uncleaved DNA left (log2) [7] | uncleaved DNA left (log2) [8] | uncleaved DNA left (log2) [9] | uncleaved DNA left (log2) [10] |
| --- | --- | --- | --- | --- | --- | --- | --- | --- | --- | --- |
| CCCATAA | -0.222 | -0.0463 | -0.27 | -0.324 | -0.0229 | -0.893 | -0.0478 | -0.208 | -0.149 | -0.178 |
| GCGCCAC | 0.128 | 0.0902 | 0.327 | 0.64 | 0.213 | 0.565 | 0.064 | 0.11 | 0.137 | 0.154 |
| TTTGCGC | -0.0219 | -0.0853 | -0.739 | 0.79 | 0.0327 | -0.0738 | 0.0378 | -0.251 | 0.112 | 0.0018 |
| CAACACC | -0.119 | -0.134 | -0.271 | -1.49 | -0.0734 | -0.677 | -0.18 | -0.0722 | -0.153 | -0.0781 |
| GCGTTCT | -0.396 | -0.0156 | 0.0584 | -0.631 | -0.134 | 0.0378 | -2.41 | -0.169 | -0.0107 | -0.0612 |
| GGACTCA | 0.106 | 0.0887 | 0.786 | 1.73 | 0.0132 | 2.2 | 0.098 | -0.0856 | 0.112 | 0.122 |
| CAGCTAC | 0.0335 | 0.0753 | 0.00159 | -1.64 | 0.217 | -0.201 | 0.102 | 0.13 | 0.12 | 0.15 |
| GAAGTGT | 0.123 | -0.0168 | -0.00207 | -0.223 | 0.00647 | 0.13 | 0.111 | 0.0199 | -0.0647 | 0.00912 |
| GATGGAT | -0.0175 | 0.0301 | 0.171 | 1.47 | -0.0886 | 1.84 | 0.0616 | 0.126 | -0.147 | -0.0524 |
| TCTCACC | -0.184 | -0.152 | -0.193 | -0.821 | -0.144 | -0.334 | -0.975 | -0.197 | -0.178 | -0.505 |
| CAACGCT | 0.0532 | 0.00442 | -0.81 | -2.34 | 0.0881 | -0.728 | -0.01 | -0.0375 | -0.0223 | -0.283 |
| CACATTT | -0.0896 | -0.809 | -0.726 | -2.69 | -0.0623 | -0.983 | -2.61 | -0.0706 | 0.083 | -0.148 |
| ATAGGTT | -0.0719 | -0.0475 | 0.109 | 1.25 | -0.14 | 1.7 | -0.0212 | 0.139 | -0.111 | 0.00628 |
| ACTTCTT | -1.79 | -0.614 | -0.415 | -2.93 | 0.0729 | -0.961 | -3.03 | -0.167 | -0.21 | -0.182 |
| GACTCTT | -2.59 | -2.36 | 0.218 | -2.44 | -0.339 | 0.921 | -3.04 | -0.105 | -0.197 | -0.155 |
